The values that follow are results of earlier work, collected in paper PMC11006913.

Some of the results follow.

The series has as its target PROP1 R112Q (Homo sapiens) (UniProt O75360). The note with it: PBM; conditions not shown; double strand, one strand shown; scale: upbm affinity estimate (log intensity, higher = more binding, comparable within an allelic series).
UniProt O75360, sequence (O75360 56-141 R112Q): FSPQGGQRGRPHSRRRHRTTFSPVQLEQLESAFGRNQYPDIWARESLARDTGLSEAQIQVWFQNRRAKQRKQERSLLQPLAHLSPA
As to GAGGCGAC [8-mer GAGGCGAC], the binding signal was 11.

In the case of AATGCAAT [8-mer AATGCAAT], the binding signal was 12.

Take CTCCGGAG [8-mer CTCCGGAG]: the binding signal is 11.1.

Regarding CTCGCGCC [8-mer CTCGCGCC], the binding signal is 10.9.

On to CGAGCAAG [8-mer CGAGCAAG], for which the binding signal is 10.9.

For the sequence CCACGTGG [8-mer CCACGTGG], the binding signal is 10.6.

With AGCGCCGG [8-mer AGCGCCGG], the binding signal is 10.9.

As for CCGACGGC [8-mer CCGACGGC], the binding signal is 10.9.

As for CTGCCGCC [8-mer CTGCCGCC], the binding signal was 11.

For CTAATTCA [8-mer CTAATTCA], the binding signal was 12.3.

For the sequence GGCCAACA [8-mer GGCCAACA], the binding signal is 10.9.

For CCCGTGCC [8-mer CCCGTGCC], the binding signal was 10.9.

Turning to CAGCCCCG [8-mer CAGCCCCG], the binding signal was 10.9.

As for GGAACCCC [8-mer GGAACCCC], the binding signal is 10.9.

Take ACAGCGCG [8-mer ACAGCGCG]: the binding signal was 10.9.

On to GCGGCACC [8-mer GCGGCACC], for which the binding signal is 10.9.

On to CCCACGAC [8-mer CCCACGAC], for which the binding signal was 10.9.

As to CCGCCCAC [8-mer CCGCCCAC], the binding signal was 10.9.

In the case of CCCCTTCG [8-mer CCCCTTCG], the binding signal was 10.9.

For the sequence GCGACGAC [8-mer GCGACGAC], the binding signal was 10.8.

Consider AGCGAGCG [8-mer AGCGAGCG], for which the binding signal is 11.

Regarding CTGGCGCA [8-mer CTGGCGCA], the binding signal was 11.1.

As to CCCCTCAC [8-mer CCCCTCAC], the binding signal is 10.9.

For the sequence CGTCCGGC [8-mer CGTCCGGC], the binding signal was 10.8.

As to GCCCGAGC [8-mer GCCCGAGC], the binding signal was 10.9.

Regarding CGCGGGGC [8-mer CGCGGGGC], the binding signal was 10.8.

Take CGGCGGGC [8-mer CGGCGGGC]: the binding signal is 10.8.

In the case of GCGGTCCC [8-mer GCGGTCCC], the binding signal was 10.8.
